± gives the standard deviation of the averaged measurements. The list shows a part of the results.

The experiment concerns PfAP2-LT AP2 domain (GST-tagged). Briefly: gcPBM binding intensity (ln(normalized median fluorescence intensity)); higher = stronger DNA binding. The essentials:
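DNA-binding domains from P. falciparum, fused to GST and produced in E. coli, were put on an Agilent 4 × 180k double-stranded probe array for 1 h in 1× PBS holding 1% milk, 0.2 mg/ml BSA, 0.5% salmon testes DNA and 0.03% Triton X-100. Probes were primer-extended, 36 bp long and drawn from intergenic genomic regions, with negative controls included. After Alexa488 anti-GST antibody detection and a 488 nm scan, binding intensity was set as the highest Masliner-normalised natural-log median intensity across replicate spots of either probe orientation.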
In the case of “TTTTTTATTCCATAATATAATATGTTTTGAAATTTG [GTGCAC_negctrl_site440]”, the “gcPBM binding intensity (ln)” value was 8.36 ± 0.52.

Regarding “ATATACATATCAATGTAATATTATATACTTTTTTAG [CACACA_negctrl_site816]”, the “gcPBM binding intensity (ln)” value worked out at 8.55 ± 0.41.

Turning to “AATATATTAAATATTACACACATACATTTAGTGTAA [CACACA_site5145]”, the “gcPBM binding intensity (ln)” value is 8.86 ± 0.34.

For the sequence “TAGTTCTTTTAATTTAGTATTATACAATATTGGAAA [CACACA_negctrl_site521]”, the “gcPBM binding intensity (ln)” value was 8.29 ± 0.33.

On to “TATATATTAAACTTTGCACACATAATTTAACTACAA [CACACA_site3440]”, for which the “gcPBM binding intensity (ln)” value came out at 9.09 ± 0.34.

As for “TTATTTATGAAGTATACACACAATATATATATATAT [CACACA_site1248]”, the “gcPBM binding intensity (ln)” value is 9.14 ± 0.12.

As for “TTAATCCACAGACACACACACACAAAATAAAATACA [CACACA_site244]”, the “gcPBM binding intensity (ln)” value is 9.98 ± 0.36.

Take “TAGTTAATATGATTATGTACATATATATATTAATTT [XGTACX_site1750]”: the “gcPBM binding intensity (ln)” value was found to be 8.59 ± 0.35.

As for “TTAGATATTATTATATGTACATATTATATGTATTAT [XGTACX_site3836]”, the “gcPBM binding intensity (ln)” value turned out to be 8.93 ± 0.43.

Take “ATTTTTTTTTTTTTTTTTTTTTTTTTTTTTGTTGTT [CACACA_negctrl_site1313]”: the “gcPBM binding intensity (ln)” value is 8.65 ± 0.49.

Take “TGTATATGAAAAAATAGTACTCATATAAATATCTTT [XGTACX_site6542]”: the “gcPBM binding intensity (ln)” value worked out at 8.56 ± 0.4.

As to “ATAATATATTTATAAACACACAAAAAAAGTTATATA [CACACA_site6831]”, the “gcPBM binding intensity (ln)” value is 8.77 ± 0.43.

Regarding “TTTATTTTATTCACTATCATAAGCAAAACTTAAACA [GTGCAC_negctrl_site287]”, the “gcPBM binding intensity (ln)” value is 8.16 ± 0.4.

For the sequence “ATTAATAATATTACATGTACATAATATAATTGAAAA [XGTACX_site5084]”, the “gcPBM binding intensity (ln)” value is 8.62 ± 0.4.

On to “ATGTCCTATATTAGTACACACATGAAAATATAAATA [CACACA_site7497]”, for which the “gcPBM binding intensity (ln)” value turned out to be 8.88 ± 0.4.

In the case of “TTATTGTTATTTGTTTGTACATAATATAATATATTA [XGTACX_site6477]”, the “gcPBM binding intensity (ln)” value is 8.68 ± 0.42.

In the case of “TCCTATGATGATGATAGTACATATGAGTTCAAAAAA [XGTACX_site273]”, the “gcPBM binding intensity (ln)” value came to 8.54 ± 0.37.

With “ACAATTAATCAAACAAGTACAAAATATATCCCTATT [XGTACX_site6223]”, the “gcPBM binding intensity (ln)” value was 8.91 ± 0.37.

As for “AATATAAAAAAAAACAAAAAAAAAATTTTGGTTCAC [CACACA_negctrl_site1290]”, the “gcPBM binding intensity (ln)” value turned out to be 8.39 ± 0.54.

Regarding “AACCATACACAAATAAACATAGACACAGATACCTCC [CACACA_negctrl_site598]”, the “gcPBM binding intensity (ln)” value is 9.2 ± 0.52.

Turning to “AATAATAAATAAATGTGTACTTAAAAATATTATATT [XGTACX_site3005]”, the “gcPBM binding intensity (ln)” value is 8.78 ± 0.47.

In the case of “TTGTATCATATATTATGTACATATTGATTTATTACC [XGTACX_site12]”, the “gcPBM binding intensity (ln)” value was 8.84 ± 0.53.

With “CAAAGTATTATGATTACACACATGTGCTTTTTTCTT [CACACA_site163]”, the “gcPBM binding intensity (ln)” value came to 9.22 ± 0.4.

On to “TTTTTAAAATATTTAACACACAATTATAATGCATAA [CACACA_site3932]”, for which the “gcPBM binding intensity (ln)” value was 8.52 ± 0.32.

Regarding “AGTAGTCTGGAGAAATGTACACAGTATCTGGTAGCT [XGTACX_site4871]”, the “gcPBM binding intensity (ln)” value was found to be 8.86 ± 0.44.

Take “AATATGTGTATAGATAGTACACATGCTGATAATATA [XGTACX_site5941]”: the “gcPBM binding intensity (ln)” value is 9.01 ± 0.38.

Take “AAAATTTTGGAACGTGCACACATATGTAATATATAT [CACACA_site9004]”: the “gcPBM binding intensity (ln)” value is 9.32 ± 0.37.

In the case of CTTATAAGAATACTAGTGCACATAATTTAACGAAAA, the “gcPBM binding intensity (ln)” value came out at 8.74 ± 0.48.

Turning to “AGCTTGTAACAGTTTACACACTAATATTTATAAATT [CACACA_site6024]”, the “gcPBM binding intensity (ln)” value worked out at 8.82 ± 0.38.

Regarding “ATATTTTTTTTTTTATGTACTTATTTATAATTATTT [XGTACX_site5279]”, the “gcPBM binding intensity (ln)” value turned out to be 8.84 ± 0.58.

Turning to ATTATACAAATTGAGGTGCATGAAACAAAATATGAA, the “gcPBM binding intensity (ln)” value worked out at 8.95 ± 0.52.

For “TTTTTTTTTTTTTTTTCACACATTGTACTTTTTTAT [CACACA_site5193]”, the “gcPBM binding intensity (ln)” value was 8.84 ± 0.48.

For the sequence “TAAGTCATATAAATGTGTACATAAAAAAAAAAAATG [XGTACX_site1645]”, the “gcPBM binding intensity (ln)” value amounted to 8.74 ± 0.5.

In the case of “TCTATCAAATTTGAAGGTACACATTTGAGATAATTA [XGTACX_site3797]”, the “gcPBM binding intensity (ln)” value is 8.56 ± 0.45.

As to “ATCATTTGCATACGCACACACACATAAAAAGAAAAA [CACACA_site355]”, the “gcPBM binding intensity (ln)” value came out at 9.57 ± 0.45.

Take “TACTTATTGTGATACTTATATTATTTTATGATTAAA [XGTACX_negctrl_site353]”: the “gcPBM binding intensity (ln)” value was 8.5 ± 0.42.

Take “TATATTTATTTATATACACACATAATAAAAAATATA [CACACA_site6527]”: the “gcPBM binding intensity (ln)” value amounted to 8.6 ± 0.42.

For the sequence “TATTAATGATAAAAAAGTACATTATTATATGATATT [XGTACX_site4235]”, the “gcPBM binding intensity (ln)” value is 8.42 ± 0.48.

For the sequence “TATATATATATATATATATATATATATGTATATATG [XGTACX_negctrl_site242]”, the “gcPBM binding intensity (ln)” value came to 9.62 ± 0.28.

For the sequence “ATAATCCACAAGCACACACACACACCCATATATATA [CACACA_site1268]”, the “gcPBM binding intensity (ln)” value came out at 10.1 ± 0.35.

Turning to “AACTTTAAACCCTGAACACACACAAATACACCCAAA [CACACA_site7971]”, the “gcPBM binding intensity (ln)” value came to 9.57 ± 0.23.

For the sequence CTTTTCTATTTTTTCGTGCACTATAAATATTTTAAT, the “gcPBM binding intensity (ln)” value is 8.89 ± 0.43.

With “CACCAAAATATATGTACATATGATAAATGTGAATAT [GTGCAC_negctrl_site83]”, the “gcPBM binding intensity (ln)” value was found to be 9.17 ± 0.41.

Consider GTCTATATATTTTAGGTGCAACGTAAATGTAAAAAT, for which the “gcPBM binding intensity (ln)” value was determined as 8.86 ± 0.42.

The values above are taken from the supplement of paper PMC11417369.
